# Assay results published in publication PMC7819943, “Rice protein-binding microarrays: a tool to detect cis-acting elements near promoter regions in rice”.
# The other results are listed elsewhere or left out.
# Biological target: T1, OsWOX13 (Oryza sativa, UniProt Q5QMM3 1-267)
# T1 sequence: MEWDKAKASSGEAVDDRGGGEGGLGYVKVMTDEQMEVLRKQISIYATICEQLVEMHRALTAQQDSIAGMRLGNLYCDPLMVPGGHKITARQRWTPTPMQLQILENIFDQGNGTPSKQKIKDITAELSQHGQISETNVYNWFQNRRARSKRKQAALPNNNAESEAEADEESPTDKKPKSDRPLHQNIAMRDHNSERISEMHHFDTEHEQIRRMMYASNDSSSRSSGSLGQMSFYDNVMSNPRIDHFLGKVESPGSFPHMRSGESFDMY
# Experiment: protein-binding microarray (RPBM); PBS, 2% BSA, 51.3 ng/ul salmon testes DNA, 50 uM zinc acetate, 200 nM TF, 25 C, 1 h; high values mean tight binding
# Settings: protein: recombinant; tags: N-terminal polyhistidine and DsRed monomer fusion (pET32a); label: CyDye5-dUTP incorporated in the synthesized complementary strand; 3' TTTTT single-stranded linker to array surface; dsDNA, one strand shown
# Method in brief: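 Transcription factors were made in E. coli BL21-CodonPlus as N-terminal fusions to a polyhistidine tag and DsRed, then purified on Ni–NTA. After primer extension with Cy5-dUTP and blocking with 2% BSA, a custom Agilent array was exposed for 1 h at 25 °C to 200 nM protein in PBS, 2% BSA, salmon testes DNA and 50 µM zinc acetate. Washed arrays were scanned on an Axon 4000B, and the binding signal is per-feature fluorescence intensity in arbitrary units.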
row,Sequence,binding signal
1,AACCAAGAATTGCAATTAGAAATTGCATAAAGATGTTCACCGGAGTCACCTAGTGCAG,3490 fluorescence intensity (a.u.)
2,ATTAAAATATGATTATTTGCTGCAAGACGCCGCATGTATTCGGAGTCACCTAGTGCAG,9520 fluorescence intensity (a.u.)
3,AGCCACGCAATCAATTAAATAATTAAGATAGGTACACGTGCGGAGTCACCTAGTGCAG,26400 fluorescence intensity (a.u.)
4,TTTAGTTGATTATGGCGCATTTTAATATTTCAAATCTAGACGGAGTCACCTAGTGCAG,8240 fluorescence intensity (a.u.)
5,CTCAGTTTGCTTAATTACATATGAAACTTAAAATGCTGAACGGAGTCACCTAGTGCAG,5750 fluorescence intensity (a.u.)
6,CTTGTCTAATTATTGTGCTTTTAATTTCCAGCAGGAACTACGGAGTCACCTAGTGCAG,25100 fluorescence intensity (a.u.)
7,GATGTAACTGTGATGTTTATATTTATGTATATATTTCATACGGAGTCACCTAGTGCAG,3600 fluorescence intensity (a.u.)
8,ACCTTAATAGCCACCCACTACTCCCACTCCCACTTCGCTCCGGAGTCACCTAGTGCAG,3510 fluorescence intensity (a.u.)
9,TGTTTAACCATTCAGTTACACACTCTTACTATCATGCAAACGGAGTCACCTAGTGCAG,6250 fluorescence intensity (a.u.)
10,AAATACCTTCAATTAATGCGTAATGTAACTATATAAGCACCGGAGTCACCTAGTGCAG,19900 fluorescence intensity (a.u.)
11,GTCATAATCACTCGCATAAACGTAGGATGTTCTTAACTTCCGGAGTCACCTAGTGCAG,7610 fluorescence intensity (a.u.)
12,GTTACAGCATAACTGCAATGTAATTATACTATACTCCCTCCGGAGTCACCTAGTGCAG,5420 fluorescence intensity (a.u.)
13,AATTAACTTCTAAAGATTAATTTGAATAAGCATTTATTCACGGAGTCACCTAGTGCAG,5080 fluorescence intensity (a.u.)
14,ATACAAGAATTACATATAATAATTGGAAAGGTAGCGGGCGCGGAGTCACCTAGTGCAG,10900 fluorescence intensity (a.u.)
15,TACTCATATGACATATCCAAATTGACACCGGGGTTAAGCCCGGAGTCACCTAGTGCAG,6620 fluorescence intensity (a.u.)
16,ACGTAAATTAATCTGTGGTTTCTTGGCGGCGGATCGATCGCGGAGTCACCTAGTGCAG,19700 fluorescence intensity (a.u.)
17,GCATATAACATAATTGGGGATACATGGTCCACCTGCATGGCGGAGTCACCTAGTGCAG,15500 fluorescence intensity (a.u.)
18,ACAGTAATTAGTCAGTTTCAACTCGGTTAGACTGATGTTTCGGAGTCACCTAGTGCAG,33500 fluorescence intensity (a.u.)
19,ATTCCATAATGGATATGTTTACTCCATTCGTCCTTGAAATCGGAGTCACCTAGTGCAG,3260 fluorescence intensity (a.u.)
20,TGATTGATAATAATTTAATTTGATGACACTATCCATACATCGGAGTCACCTAGTGCAG,34200 fluorescence intensity (a.u.)
21,CAAAATTATTAACACTAAAATTTGAAAATGTTGATATGTTCGGAGTCACCTAGTGCAG,16800 fluorescence intensity (a.u.)

row,Sequence,binding signal
1,CTCCCACTTTTCCATCACATCACATTACATCCAAAACTTTCGGAGTCACCTAGTGCAG,3700 fluorescence intensity (a.u.)
2,TTATACACTGGTTGTAGATTGACAATATGTACTAAGAAATCGGAGTCACCTAGTGCAG,11300 fluorescence intensity (a.u.)
3,AGAAAATTAGAAACAAAACATCAAATATAATTTGACTTTTCGGAGTCACCTAGTGCAG,5160 fluorescence intensity (a.u.)
4,ATTTAGACAGGTTCCAACCTCCTTGATAACAGTTAAAACCCGGAGTCACCTAGTGCAG,7950 fluorescence intensity (a.u.)
5,GAACTAGCTTAATTAAACCACAATTAGAATATATGTAGGACGGAGTCACCTAGTGCAG,3750 fluorescence intensity (a.u.)
6,CTATTAAGTTGACTGTAAATAATTTGGAGCCAGCAGTTTGCGGAGTCACCTAGTGCAG,8660 fluorescence intensity (a.u.)
7,TATGAATGACATATAAACAGATAATCGTGTTCACCGAATGCGGAGTCACCTAGTGCAG,20900 fluorescence intensity (a.u.)
8,AACAGTTGCATGATTGCAACGAAGAGAGACTAACACGAACCGGAGTCACCTAGTGCAG,4190 fluorescence intensity (a.u.)
9,CCAAATTCATCTTAATGTTTGATTATGATCAGCATCTTATCGGAGTCACCTAGTGCAG,4610 fluorescence intensity (a.u.)
10,ATTAAATTAGAAATAAATATTTTAATAGATACGGTGTCCACGGAGTCACCTAGTGCAG,35000 fluorescence intensity (a.u.)
11,TATAAACTAGTTAATTGTAGATTTATAGAATTTAACTACTCGGAGTCACCTAGTGCAG,11300 fluorescence intensity (a.u.)
12,GGTAATGATGTGGCGAATGATGACATCACACAAAATGATACGGAGTCACCTAGTGCAG,5120 fluorescence intensity (a.u.)
13,CTCCTTACAAATTTTGAAGATAATTTCGTAACACTTGGGGCGGAGTCACCTAGTGCAG,7610 fluorescence intensity (a.u.)
14,ATGCTACAGTAGTGATTGAGAGTTTGTAATCAAATCAATTCGGAGTCACCTAGTGCAG,18100 fluorescence intensity (a.u.)
15,CGTTGATTATTGCGATCGAAACCGTCTCATATAATTTTGCCGGAGTCACCTAGTGCAG,52500 fluorescence intensity (a.u.)
16,CTTGTATGATTGTATCCCCTGACATGGCACCACACGCAGTCGGAGTCACCTAGTGCAG,9110 fluorescence intensity (a.u.)
17,TTATTAGTACTAATCAAGAAACAAACTAAATGGTACCCCGCGGAGTCACCTAGTGCAG,7120 fluorescence intensity (a.u.)
18,AAAGATTGAGGGGAAGGGTGATAGGTGGGCCCCACGTGGGCGGAGTCACCTAGTGCAG,5510 fluorescence intensity (a.u.)
19,AAACTTTTACACCTGATGATAGATTTGTAATAGATGTTTGCGGAGTCACCTAGTGCAG,3730 fluorescence intensity (a.u.)
20,CTCGCTGATTGGAGTTGCGCTTAGCCGTCGTAATAGTCATCGGAGTCACCTAGTGCAG,40900 fluorescence intensity (a.u.)
21,ACTGTGAAACATCTAATTGAGCAGGTAAACAGCTCTATCACGGAGTCACCTAGTGCAG,5470 fluorescence intensity (a.u.)
